Measurements reported in publication PMC4336329 (PLoS ONE, 2015).
In all, about 310,000 compounds went through this assay and about 14,000 (4.5%) showed an effect of 50% or more. Effects have a minus sign here. Some of the results follow.

Target: human ether-à-go-go-related gene (hERG) potassium channel (human, UniProt Q12809)
Experiment: primary screen, population patch clamp on CHO cells stably expressing hERG
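Also: peak tail current of the secondary pulse compared with the same well before compound.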

Chain of human ether-à-go-go-related gene (hERG) potassium channel (Q12809 whole entry, looked up): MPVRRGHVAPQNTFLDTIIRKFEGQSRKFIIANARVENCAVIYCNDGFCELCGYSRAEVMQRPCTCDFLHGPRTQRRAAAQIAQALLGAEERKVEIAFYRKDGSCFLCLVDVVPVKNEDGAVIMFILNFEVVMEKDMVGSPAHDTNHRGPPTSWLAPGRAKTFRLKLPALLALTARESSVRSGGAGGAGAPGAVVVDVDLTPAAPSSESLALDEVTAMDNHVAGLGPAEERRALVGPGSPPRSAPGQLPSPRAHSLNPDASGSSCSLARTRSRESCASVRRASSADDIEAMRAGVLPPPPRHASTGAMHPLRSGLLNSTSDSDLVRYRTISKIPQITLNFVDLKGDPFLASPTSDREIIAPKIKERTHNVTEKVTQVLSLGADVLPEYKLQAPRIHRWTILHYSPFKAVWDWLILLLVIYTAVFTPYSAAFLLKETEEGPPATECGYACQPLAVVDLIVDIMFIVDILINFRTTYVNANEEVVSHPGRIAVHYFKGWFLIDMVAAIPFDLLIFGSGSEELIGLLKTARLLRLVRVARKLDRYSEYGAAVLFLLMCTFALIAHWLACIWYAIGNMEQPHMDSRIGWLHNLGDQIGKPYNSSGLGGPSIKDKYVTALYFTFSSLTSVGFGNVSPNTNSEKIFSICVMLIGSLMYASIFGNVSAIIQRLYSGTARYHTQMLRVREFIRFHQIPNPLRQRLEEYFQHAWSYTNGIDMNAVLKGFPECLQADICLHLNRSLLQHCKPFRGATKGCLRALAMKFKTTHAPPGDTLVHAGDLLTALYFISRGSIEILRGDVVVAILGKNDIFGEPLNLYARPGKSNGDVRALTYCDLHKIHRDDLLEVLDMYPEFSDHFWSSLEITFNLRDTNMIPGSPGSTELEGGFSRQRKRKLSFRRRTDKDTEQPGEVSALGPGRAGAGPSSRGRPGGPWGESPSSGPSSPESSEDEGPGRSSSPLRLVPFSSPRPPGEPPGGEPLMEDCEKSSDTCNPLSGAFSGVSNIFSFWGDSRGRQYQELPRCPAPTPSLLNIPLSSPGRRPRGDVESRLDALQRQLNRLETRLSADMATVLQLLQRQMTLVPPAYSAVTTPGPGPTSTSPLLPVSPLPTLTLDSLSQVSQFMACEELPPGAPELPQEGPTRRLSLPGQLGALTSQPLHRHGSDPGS

| SMILES | hERG current change (%, negative = inhibition) at 10uM [%] |
| --- | --- |
| CC1(C)NC(=O)N(c2ccc([N+](=O)[O-])c(C(F)(F)F)c2)C1=O | 10.5 |
| Cc1ccc2[nH]c(=O)c(CN(Cc3cccs3)S(=O)(=O)c3ccc4c(c3)OCCO4)cc2c1 | -0.714 |
| Cc1nn(CC(=O)NCCCc2ccccc2)c(=O)c2cccn12 | -17.1 |
| COc1ccc2[nH]cc(CCNC(=O)Nc3ccccc3C)c2c1 | 13.4 |
| Fc1ccccc1N1CCN(Cc2nc(-c3ccccc3)no2)CC1 | -6.65 |
| Cc1cc(NC(=O)CSCC(=O)Nc2ccccc2OC(F)F)no1 | 15.1 |
| COc1ccc(/C=C2\SC(=S)N(c3cccnc3)C2=O)cc1 | -4.39 |
| Cc1cc(Br)cc(C)c1NC(=S)NC(=O)CC(C)C | 6.93 |
| COc1ccc(C(=O)N/N=C2\CCc3ccccc32)cc1OC | 8.11 |
| Cc1cc(C)n(-c2nnc(N3CCN(c4ccccc4)CC3)nn2)n1 | -16 |
| O=C(COc1cccc2ccccc12)N1CCN(c2ccccn2)CC1 | -25.1 |
| CCOc1ccc(-c2noc(CCC(=O)O)n2)cc1 | -1.59 |
| Cc1cc(C(C)(C)C)cc(C)c1S(=O)(=O)N1CC(=O)Nc2ccccc21 | 20.5 |
| O=C(NCCCN1CCCC1=O)c1ccc2c(c1)OCO2 | 5.94 |
| COc1cc(/C=N/NC(=O)CNC(=O)c2ccncc2)ccc1OC(C)=O | 3.31 |
| CCOc1cccc(NC(=O)CSc2sc3c(O)cc(=O)[nH]c3c2C#N)c1 | 18.6 |
| COc1ccc(OC)c(NC(=O)C2CC(=O)N(CCc3ccccc3)C2)c1 (stereo not shown) | 2.72 |
| CC(C)(C)c1[nH]nc2c1C(c1ccsc1)C(C#N)=C(N)O2 (stereo not shown) | 16.6 |
| Cc1ccc2nc(C(F)OC(F)(F)F)[nH]c2c1 (stereo not shown) | -2.79 |
| O=C(CC(=O)Nc1ccc(Cl)cc1)N/N=C\c1cccc(F)c1 | 16.6 |
| COc1ccc(CCC(=O)OCC(=O)c2c(N)n(CC(C)C)c(=O)n(C)c2=O)cc1 | -33.4 |
| NS(=O)(=O)c1ccc(CCNC(=O)COC(=O)CC(c2ccccc2)c2ccccc2)cc1 | -42 |
| O=C(O)CSc1c(O)c2ccccc2[nH]c1=O | 1.29 |
| NC(=O)C1CCN(C(=O)COc2cccc3ccccc23)CC1 | -6.03 |
| Cc1ccc(CC(=O)Nc2nnc(-c3ccc(F)cc3)o2)c(C)c1 | 6.04 |
